Several values for one entry are separate records, joined by “and”; a condition that tells them apart may be missing. Equal values may be shown once.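 Results reflect a 48-hour exposure of cells in 96-well plates to compound at five concentrations. GI50 is the concentration that inhibits growth by half. At the TGI there is no net growth.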

The test system of this assay is NCI-H322M lung. Briefly: NCI anticancer screen, dose series, 48 h.
Turning to `N#CCCN1C/C(=C/c2ccc(Br)cc2)C(=O)/C(=C/c2ccc(Br)cc2)C1`, the GI50 was 3.07 µM and the TGI is 11.4 µM. Consider `CC(C)(C)c1ccc2c(c1)S(=O)(=O)Nc1ccc(Cl)cc1NS(=O)(=O)c1cc(C(C)(C)C)ccc1OCCOCCOCCO2`, for which the TGI was above 100 µM. On the same count and under the same terms, for `Clc1ccc(CSCCc2ccncc2)cc1Cl` the value was 86.3 µM; for `COC(=O)C(=O)C(C(C)=O)C(=O)NCc1ccc(OC)c(OC)c1` (stereo not drawn), above 100 µM. Consider `NCCNCC1CCNCC1`, for which the TGI is above 100 µM. Still for that read-out and setting: for `CO[C@H]1Nc2c(ccc(C)c2O)C(=O)N2C=C(/C=C/C(N)=O)C[C@@H]12` the value was 0.812 µM; for `O=[N+]([O-])c1cccc(C2=NOC(C3CCCCC3)C2)c1` (stereo not drawn), above 100 µM; for `CC(C)=CCC/C(C)=C/COC(C)(C)C1=CCC(C)CC1` (stereo not drawn) (tested in a mixture with another compound), above 100 µM. Regarding `CC1(C)CN=C(NN=C(/C=C/c2ccc(C(F)(F)F)cc2)/C=C/c2ccc(C(F)(F)F)cc2)NC1`, the GI50 is 1.47 µM and the TGI was determined as 2.92 µM. As for `c1ccc2c(c1)[nH]c1c2cc[n+]2cc3c(cc12)CCCC3`, the TGI was 8.77 µM and 12 µM. In the case of `Cc1cc(N/N=C/c2ccccn2)nc2ccccc12`, the GI50 is 0.375 µM and the TGI was found to be 14.7 µM.

`Cc1cc2c([N+](=O)[O-])cc3c(c2o1)C(=O)C=CC3=O` yielded a TGI of 39.5 µM. In turn, `CC1=C(C#N)C(=O)CC(c2ccc(Cl)cc2)N(C)N1` (stereo not drawn) registered a TGI above 100 µM. Same read-out and setting: for `CCCC(=O)C1=C(O)C(Cc2c(O)c(C)c(O)c(C(=O)CCC)c2O)=C(O)C(C)(C)C1=O` the value was above 50 µM. As to `CSc1c(C#N)c(N)n(-c2ccc(C)cc2)c(=O)c1C#N`, the TGI was above 100 µM.

Take `Nc1ccccc1C(=O)/C=C/c1c(O)ccc2ccccc12`: the TGI was above 100 µM. The same measure, in the same setting: for `Cc1ccc(C)c(N2C/C(=N\NC(=O)CC#N)C(c3nc4ccccc4s3)C(=O)C2=O)c1` (stereo not drawn) the value was above 100 µM; for `CCOC(=O)c1nc2ccc(C(F)(F)F)cc2nc1Oc1ccc(C#N)cc1`, above 100 µM; for `O=C(O)c1cc(-c2ccc3c(O)c(O)ccc3c2)ccc1O`, above 75 µM. Same read-out and setting: for `COc1ccc(C(CC(=O)c2ccc3c(c2)OCO3)c2c(O)c3ccccc3oc2=O)cc1OC` (stereo not drawn) the value was above 100 µM.

Source of the values: PubChem BioAssay (NCI).
